About 120 (0.25%) of roughly 48,000 compounds were called active. Not shown: some 4% with an inconclusive outcome. Calls follow the shape of the dose curve; as a rule, active = well fitted activation curve with a large enough effect; inconclusive = small, poorly fitted or top-dose-only effect, or another doubt; inactive = no such curve, though single readings can be large or run the other way. This is one part of the list.
Experiment: Primary qHTS for Identification of Small Molecule Activators of Huntingtin-Antisense Promoter Activity; also: nearly all actives have a fitted effect of over 55% in size
Details: HEK293 HTT-AS promoter firefly luciferase reporter, 24 h; at 57.5 µM (top of the series) unless noted
How it was run: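 HEK293 cells carrying firefly luciferase reporters were seeded at 2,500 per well in Opti-MEM and cultured for 24 h. They were then treated with compounds at up to 57.5 uM final for 24 h at 37 degrees C before Dual-Glo luminescence readout.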

Structure (SMILES)	activity change, positive = activation
CC1(C)CC/C(=C/c2ccc(Cl)cc2)C1(O)Cn1cncn1 (stereo not drawn)	inactive: -24% [at 116 µM]
COc1ccc2c(c1OC)C(=O)O[C@H]2[C@@H]1c2cc3c(cc2CCN1C)OCO3	inactive: -0.371%
O=C(Nc1ccc(F)c([N+](=O)[O-])c1)c1cccn(Cc2ccccc2)c1=O	inactive: -2.23% [at 57.5 µM, percent change from vehicle, -100% = no light]
Cc1cccc(OCC(=O)N2CCN(CCc3ccccn3)CC2)c1	inactive: 8.7% [at 11.5 µM]
COP(=S)(OC)Oc1ccc(Sc2ccc(OP(=S)(OC)OC)cc2)cc1	inactive: -9.43%
CCCCCCC(=O)CCCCCC/C=C/C[C@@H](O)[C@H](O)[C@@](N)(CO)C(=O)O	inactive: -6.45% [at 25.1 µM]
COc1cccc([C@@]2(O)CCCC[C@@H]2CN(C)C)c1	inactive: -1.56%
CCC(=O)O[C@H]1CC[C@H]2[C@@H]3CCC4=CC(=O)CC[C@]4(C)[C@H]3CC[C@]12C	inactive: -11.8%
CO[C@]12CC[C@@]3(C[C@@H]1[C@](C)(O)C(C)(C)C)[C@@H]1Cc4ccc(O)c5c4[C@@]3(CCN1CC1CC1)[C@H]2O5	inactive: -36.6% [at 116 µM]
CCCCc1nn2c(=O)cc(COC(=O)Cc3ccccc3)nc2s1	inactive: 1.75%
Cc1sc2c(c1C)C(c1ccc(Cl)cc1)=N[C@@H](CC(=O)OC(C)(C)C)c1nnc(C)n1-2	inactive: -30.8%
C[C@]12CC[C@H](O)CC1=CC[C@H]1[C@H]3CCC(=O)[C@@]3(C)CC[C@@H]12	inactive: -27.5%
CCN1CCCC1CNC(=O)C(O)(c1ccccc1)c1ccccc1 (stereo not drawn)	inactive: -1.69%
C=Cc1ccc(Cn2c(C)c(CNCCc3cc(OC)ccc3OC)c(C(=O)O)c2C)cc1	inactive: -11.5% [at 57.5 µM, percent change from vehicle, -100% = no light]
C[C@@H]1CN(C2CCC(C#N)(c3ccc(F)cc3)CC2)CC[C@]1(C(=O)O)c1ccccc1 (stereo partly drawn)	inactive: -3.08%
C=C[C@@H]1CN2CCC1C[C@H]2[C@H](O)c1ccnc2ccccc12 (stereo partly drawn)	inactive: -20.5%
O=C(CCCN1CCC(n2c(=O)[nH]c3ccccc32)CC1)c1ccc(F)cc1	inactive: -18.5%
C[C@]12CC[C@H]3[C@@H](CCC4=CC(=O)CC[C@@H]43)[C@@H]1CC[C@@H]2OC(=O)CCC1CCCCC1	inactive: -5.4%
CCC1(CC)C(=O)NC(=O)NC1=O	inactive: -8.8%
O=C(Nc1cc(C(F)(F)F)cc(C(F)(F)F)c1)c1cccn(Cc2ccccc2Cl)c1=O	inactive: -24% [at 57.5 µM, percent change from vehicle, -100% = no light]
C[C@]12CCC(=O)C(O)=C1CC[C@@H]1[C@H]3CCC(=O)[C@@]3(C)CC[C@@H]12	inactive: -12.8%
CCCC[N+]1(C)[C@H]2CC(OC(=O)[C@H](CO)c3ccccc3)C[C@H]1[C@H]1O[C@H]12 (stereo partly drawn)	inactive: -6.1%
CCc1cc2c(s1)-n1c(C)nnc1CN=C2c1ccccc1Cl	inactive: -1.33%
CC(C)(C)c1ccc(C(=O)Nc2ccc(Cl)cc2C(=O)c2ccccc2)cc1	inactive: -21.9%
CC(C(O)c1ccccc1)N(C)C/C=C/c1ccccc1 (stereo not drawn)	inactive: -12.4%
Clc1ccc(C(c2ccc(Cl)cc2)C(Cl)(Cl)Cl)cc1	inactive: -3.7%
COc1cc(N)c(Cl)cc1C(=O)NC1CN2CCC1CC2 (stereo not drawn)	inactive: -6.3%
Cc1ccc(NC(=O)c2cccn(Cc3ccccc3C)c2=O)c(C)c1	inactive: -19.9%

Source: PubChem BioAssay AID1508624 (National Center for Advancing Translational Sciences (NCATS), 2021)
